In PubChem BioAssay AID588855 (National Center for Advancing Translational Sciences (NCATS), 2011):
“And” between values parts separate entries of the source, which are not always exact repeats. Identical values can stand only once. Among all 410,000 compounds or so, about 5,000 (1.2%) were called active. The shares of active, inactive and inconclusive entries below differ from those in the screen. Calls come from the whole dose curve; as a rule, active = well fitted inhibition curve with a large enough effect; inconclusive = small, poorly fitted or top-dose-only effect; inactive = no such curve, though single readings can be large or run the other way. Potencies of inconclusive entries are doubtful fits and often do not repeat.

Assay: qHTS for Inhibitors of TGF-b; note: nearly all actives have a fitted effect of over 65% in size
Conditions: HepG2 CAGA-GFP TGF-b/SMAD3 reporter, GFP fluorescence, 18 h, TGF-beta stimulated, 500 pg/mL final; series mostly up to 46.1 µM; activity, negative = inhibition: at the top concentration
Method in brief: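 Inhibition was scored as loss of TGF-beta-induced (500 pg/mL final, 18 hours, 37 degrees C) GFP in HEPG2 cells carrying a CAGA-GFP reporter, in DMEM with 1% FBS. Well GFP was summed per cell; Activity was normalised to unstimulated and stimulated DMSO wells, then concentration-response fitting.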
% is set by controls: 0 for no effect and ±100 for the full control effect; potency is the fitted concentration of half-maximal effect; tags give direction and shape of the fitted curve.

Q: For `O=C(/C=C/c1ccccc1Cl)NCCc1ccccc1`, which “activity, negative = inhibition” value is on record?
A: Its value is inactive: 30.4%.

Q: With `Cc1ccc(C)c(NC(=O)c2cccc(Oc3ccc([N+](=O)[O-])cc3Cl)c2)c1` as the compound, how does the Potency read?
A: The Potency was inconclusive: 8.91 µM [inhibitor, partial curve].

Q: For `CCOc1ccc(C(C)=O)cc1COc1cccnc1[N+](=O)[O-]`, which Potency is on record?
A: The Potency was inconclusive: 1.12 µM [inhibitor, full curve].

Q: With `Cc1ccc2c(CN(C)Cc3ccc(Cl)cc3)cc(=O)oc2c1` as the compound, how does the Potency read?
A: The Potency was inconclusive: 35.5 µM [inhibitor, single point].

Q: For `CCOC(=O)c1sc(-c2ccc(C)cc2)c(C#N)c1C`, which “activity, negative = inhibition” value is on record?
A: The value was inactive: 1.23%.

Q: With `Cc1cccc(Cn2c(C)c(C)c3cc(C(=O)NCc4ccco4)ccc32)c1` as the compound, how does the Potency read?
A: Its Potency is inconclusive: 22.4 µM [inhibitor, partial curve, poor fit].

Q: For `COC(=O)CN(c1ccccn1)S(=O)(=O)c1ccccc1`, which Potency is on record?
A: Its Potency is inconclusive: 11.2 µM [inhibitor, single point].

Q: Which Potency does the source give for `COc1cc(/C=C/C(=O)Nc2ccc(C)cc2)cc(OC)c1OC` here?
A: Its Potency is inconclusive: 25.1 µM [inhibitor, single point].

Q: With `CS(=O)(=O)N1CCc2cc(S(=O)(=O)NCc3ccccc3Cl)ccc21` as the compound, how does the Potency read?
A: The Potency was inconclusive: 20 µM [inhibitor, single point].

Q: With `CSc1ncccc1C(=O)Nc1cccc(S(=O)(=O)N2CCCCCC2)c1` as the compound, how does the Potency read?
A: The Potency was inconclusive: 31.6 µM [inhibitor, single point].

Q: With `O=S1(=O)CC(N2CCC(Cc3ccccc3)CC2)CN1Cc1ccc(F)cc1` (centres undefined) as the compound, how does the Potency read?
A: Its Potency is inconclusive: 25.1 µM [inhibitor, single point].

Q: Which Potency does the source give for `CCc1ccc(NC(=O)C2CCCN(S(=O)(=O)c3ccc4c(c3)CCCN4C(C)=O)C2)cc1` (centres undefined) here?
A: The Potency was inconclusive: 3.16 µM [inhibitor, partial curve, poor fit] and inconclusive: 35.5 µM [inhibitor, single point].

Q: Which Potency does the source give for `O=C(CSc1nc2ccc([N+](=O)[O-])cc2[nH]1)c1ccc2ccccc2c1` here?
A: The Potency was inconclusive: 35.5 µM [inhibitor, single point].

Q: Which “activity, negative = inhibition” value does the source give for `O=C(Nc1ccccc1N1CCCC1)C1CC(=O)N(Cc2ccccc2)C1` (centres undefined) here?
A: The value was inactive: 22.9%.

Q: Which Potency does the source give for `Oc1c(Cl)cc(Cl)cc1/C=C/c1ccc2cccc(O)c2n1` here?
A: Its Potency is inconclusive: 20 µM [inhibitor, single point].

Q: For `COc1ccccc1N1CCN(S(=O)(=O)c2ccc3[nH]c4c(c3c2)CCCC4)CC1`, which Potency is on record?
A: Its Potency is inconclusive: 4.47 µM [inhibitor, partial curve, poor fit].

Q: Which “activity, negative = inhibition” value does the source give for `CCOc1ccc(Oc2c(/C=N/NC(C)=O)c(C)nn2-c2ccccc2)cc1` here?
A: Its value is inactive: -1.66%.

Q: With `Cc1ccc(-c2csc3ncnc(Oc4ccc5c(C)cc(=O)oc5c4)c23)cc1` as the compound, how does the Potency read?
A: Its Potency is inconclusive: 22.4 µM [inhibitor, single point].

Q: For `COc1ccc(OCC(=O)Nc2ccc3c(c2)OCO3)cc1`, which Potency is on record?
A: Its Potency is inconclusive: 35.5 µM [inhibitor, single point].

Q: For `O=C(C1CCCN(Cc2ccc([N+](=O)[O-])cc2)C1)N1CCCCC1` (centres undefined), which Potency is on record?
A: Its Potency is inconclusive: 17.8 µM [inhibitor, single point].

Q: For `COc1ccc(NC(=O)C2(C)Cc3c(-c4ccc(N(C)C)cc4)ccnc3O2)cn1` (centres undefined), which “activity, negative = inhibition” value is on record?
A: The value was inactive: 4.96%.

Q: Which “activity, negative = inhibition” value does the source give for `O=C(COC(=O)CC1CC2CCC1C2)Nc1cccc(S(=O)(=O)NC2=NCCCCC2)c1` (centres undefined) here?
A: The value was inactive: 1.1%.

Q: With `Cc1ccc(O)c(CNc2cnc3ccccc3c2)c1` as the compound, how does the “activity, negative = inhibition” value read?
A: The value was inactive: -19.2%.

Q: With `CCC(=O)N1CCc2cc(Br)cc(S(=O)(=O)CCC(=O)N3CCN(c4ccccc4OC)CC3)c21` as the compound, how does the “activity, negative = inhibition” value read?
A: Its value is inactive: 38.7%.

Q: With `Cn1nc(C(C)(C)C)cc1C(=O)N1CCCCC1c1cc(C(=O)Nc2cccc(C#N)c2)no1` (centres undefined) as the compound, how does the “activity, negative = inhibition” value read?
A: The value was inactive: 5.62%.

Q: With `CCOc1ccc(S(=O)(=O)NC(C)C(=O)NCc2cccnc2)cc1` (centres undefined) as the compound, how does the “activity, negative = inhibition” value read?
A: The value was inactive: 3.85%.

Q: Which Potency does the source give for `CCc1ccc(S(=O)(=O)c2nnn(-c3ccc(F)cc3)c2N)cc1` here?
A: The Potency was inconclusive: 22.4 µM [inhibitor, single point].

Q: For `Cc1ccc(NC(=O)c2ccc3snnc3c2)cc1Cl`, which “activity, negative = inhibition” value is on record?
A: Its value is inactive: -8.42%.

Q: With `S=C1NC[C@H](Cc2ccccc2)N1CCCCC1CCCCC1` as the compound, how does the Potency read?
A: Its Potency is inconclusive: 35.5 µM [inhibitor, single point].

Q: For `COc1cc(NC(=O)CSc2nc3[nH]ncc3c(=O)n2-c2ccc(Cl)cc2)cc(OC)c1`, which Potency is on record?
A: The Potency was inconclusive: 35.5 µM [inhibitor, single point].

Q: For `COc1cc(NC(=O)CCN2CCN(C/C=C/c3ccccc3)CC2)cc(OC)c1`, which Potency is on record?
A: The Potency was inconclusive: 35.5 µM [inhibitor, single point].

Q: With `Cc1ccc2c(c1)[C@H]1[C@H](CO2)[C@H](c2ccccc2)[C@]2(C)C(=O)N(Cc3ccc(F)cc3)CC(=O)N12` as the compound, how does the “activity, negative = inhibition” value read?
A: Its value is inactive: -17.2%.

Q: Which Potency does the source give for `COc1cccc([C@@H]2CC=C(C(=O)O)[C@H](c3ccc(Cl)cc3)N2S(=O)(=O)c2ccc(C)cc2)c1` here?
A: The Potency was inconclusive: 35.5 µM [inhibitor, single point].

Q: With `CCCC(=O)NC(=S)Nc1nc(-c2ccc(OC)cc2)cs1` as the compound, how does the Potency read?
A: Its Potency is inconclusive: 1.41 µM [inhibitor, full curve].

Q: For `O=C(NC1CCN(c2ncccn2)CC1)c1cccc(F)c1`, which “activity, negative = inhibition” value is on record?
A: Its value is inactive: 0.755%.

Q: For `COc1ccc(-c2nc3ccc(Br)cn3c2Cc2ccsc2)cc1OC`, which Potency is on record?
A: The Potency was inconclusive: 8.91 µM [inhibitor, partial curve].

Q: With `CC/C(=N\Nc1ccccc1[N+](=O)[O-])c1ccc(O)cc1` as the compound, how does the Potency read?
A: The Potency was inconclusive: 25.1 µM [inhibitor, single point].

Q: For `CCCCN(C)Cc1cc(=O)oc2cc3c(cc12)CCCC3`, which “activity, negative = inhibition” value is on record?
A: Its value is inactive: 0.712%.

Q: With `CCC(c1nc2ccccc2[nH]1)N(CCCn1ccnc1)C(=O)c1ccc(C(F)(F)F)cc1` (centres undefined) as the compound, how does the “activity, negative = inhibition” value read?
A: Its value is inactive: -10.7%.

Q: Which Potency does the source give for `COc1ccc(-c2nc(CS(=O)CC(=O)NC(C)CCc3ccccc3)c(C)o2)cc1OC` (centres undefined) here?
A: The Potency was inconclusive: 35.5 µM [inhibitor, single point].

Q: For `COc1ccc(C(=O)NCC2(N3CCCCC3)CCCCC2)cc1S(=O)(=O)N(C)C`, which “activity, negative = inhibition” value is on record?
A: Its value is inactive: 26.1%.

Q: Which “activity, negative = inhibition” value does the source give for `CC(C)(C)n1ncc2c(=O)n(Cc3ccc(SC(=O)O)cc3Cl)cnc21` here?
A: Its value is inactive: -14.7%.

Q: With `COc1ccc(-c2sc3cc4c(cc3c2C#CCO)OCO4)cc1` as the compound, how does the Potency read?
A: Its Potency is inconclusive: 11.2 µM [inhibitor, partial curve, poor fit].

Q: For `COc1cc(C2CC(=O)Oc3cc(C)c(Br)c(C)c32)cc(OC)c1OC` (centres undefined), which Potency is on record?
A: Its Potency is inconclusive: 22.4 µM [inhibitor, single point].
